Measurements: the RNAGym collection of RNA variant scans (doi:10.1093/nar/gkz1192)
The source gives no read counts; variants with many changes may rest on few reads.

B1: CPEB3 Ribozyme (parent)
chain: UAACAGGGGGCCACAGCAGAAGCGUUCACGUCGCAGCCCCUGUCAGAUUCUGGUGAAUCUGCGAAUUCUGCUGUAUAUCUC

Variants of: B1
Assay: self-cleavage, relative activity (ratio to wild type); higher = more cleavage; in vitro, sequencing
Method in brief: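 Libraries of CPEB3 self-cleaving ribozyme mutants came from rounds of error-prone PCR and carried barcodes, which DNA sequencing matched to variants. In vitro transcription used T7 RNA polymerase at 37°C for 5 hours, with a further 15 min in DNase I before EDTA stopped the reaction; the ribozymes cleaved during both steps. The RNA was reverse transcribed with template switching and sequenced on Illumina. Relative activity is the cleaved/total read fraction of a variant divided by that of the unmutated ribozyme, averaged over three batches with at least 5 reads.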

Variant	self-cleavage
A3U A28U G30C U74A	0.21
A3U A28U U41A U43C U48C U60C A64G	0.15
A3U C29U U67C U78C	0.11
A3U A45G U67C	0.49
A3U G42U A56G A64U	0.34
A3U A35U A56U U80C	0.46
A3U C34G U41C U66G	0.08
A3U C32A U69A U72A	0.08
A3U C38G A56U U58C A77G	0.13
A3U G9U A20C A56G	0.27
A3U G8A A13U C34A U66G	0.07
A3U A28U U72C	1.15
A3U C4U U60A	0.84
A3U C34G U43C A64U U72C	0.12
A3U G33A U51A A75G U76C	0.16
A3U G24A G61A	0.34
A3U A57G U60C	0.41
A3U A57G C62U	0.1
A3U G9U U66C	0.24
A3U C29U G52A A64G U67C U78C	0.13
A3U G8A A13U U48C A57G U66C G73A	0.05
A3U A45G U49C G55A U58A	0.04
A3U G33A U49C G55A U66C	0.07
A3U C11A A35U A56G	0.38

Variant	self-cleavage
A3U A35G U51A U69G	1.13
A3U C12U C37G U43A A47G U51C	0.28
A3U G46A U66C U80C	0.1
A3U A45U U58C A77U U80A	0.19
A3U C11G U41C U78C	0.58
A3U G6A U48A	0.46
A3U C59U U60A	0.49
A3U G53C U74A	1.15
A3U C29G U43C G70C	0.14
A3U G30C U41C U60C	0.2
A3U C12A A57C	0.46
A3U A28U G30A U69A	0.11
A3U G7C G19U U72A	0.3
A3U G7U U31C	0.59
A3U C32U U66C U74C	0.18
A3U A35U A64G	0.66
A3U G8C U48C U51C U54C G73A U80C	0.07
A3U A47G U80C	1.22
A3U A45U U48A	0.17
A3U G6U G36U U80C	0.09
A3U G10U G24C U31C	0.26
A3U A35G U60A U69C	0.66
A3U A57G A64U	0.29
A3U G7A A56G	0.32

Variant	self-cleavage
A3U A35G A56U	1.15
A3U G8U A15G U43G U49A	0.34
A3U A45G U78G	1.08
A3U C50U A65G	0.5
A3U G9A U25C A64U U76C	0.08
A3U C11U G33A A65G U78C	0.05
A3U C29A U41A U58C	0.08
A3U G7A A15U C62G U72C	0.06
A3U A56G C79U	1.19
A3U G36A U58C U69A U72G U78C	0.1
A3U G10A U31C C32U A65G	0.05
A3U C37A U80A	0.16
A3U G6A A28G A64U	0.08
A3U G9A A64U	0.24
A3U C27A U31C C38A G42A A77U	0.22
A3U A47U U80C	0.38
A3U C38A U49C	0.22
A3U G10A A13G A47G U54G	0.41
A3U C11A U43C U67G U76C	0.05
A3U G9A A18G U26C A45G U51C U60C	0.06
A3U G52A U69A	0.59
A3U C32A U43C U76C	0.07
A3U C12U A20G C32G A77U	0.07
A3U C62U A65G A75G C81U	0.24

Variant	self-cleavage
A3U G10U U41C C62G U72G	0.16
A3U C12U A13U G24C U43C	0.38
A3U C17U C38A	0.59
A3U G8U C17U U43A	0.37
A3U C11G A18C U25C	0.34
A3U G6A C37U U51A U72G	0.11
A3U C40A A75U U78C	0.15
A3U A35U U54C	0.83
A3U G19U A35G U51A U69C	0.87
A3U C29G U41G U49C	0.11
A3U A47G U54C U67C U78C	0.2
A3U G24C C44A	0.15
A3U G9U A77G	0.12
A3U G24A A45G	0.59
A3U C34A A35U U60C	0.14
A3U G9U U41A U51C U60A A77G	0.14
A3U G6A A21G U43A A45G	0.07
A3U G9A A45G A65G	0.08
A3U A57G U72A	0.71
A3U A35G A65G	1.12
A3U C34G C38A C39U	0.44
A3U C39U A64U U69C U72A	0.07
A3U G19U U51A U69C	0.13
A3U A75G U80C	0.65

Variant	self-cleavage
A3U C23U A35G U48C U54C A77G	0.61
A3U A45U A47C U60C	0.08
A3U G6A U25C A45G	0.39
A3U G7C A20U C39U C71U U78C	0.05
A3U A56G A65U	0.24
A3U C4A U41A A45U	0.44
A3U C50A C62G U80C	0.27
A3U A47G U54C U60A U74A A75G	0.35
A3U G10A A13G A21G A28G U31C U49C	0.07
A3U G33U U72A	0.23
A3U C11G A13G U41G	0.07
A3U C11G A35U A47U A57U A75U	0.32
A3U A35G A45G	1.2
A3U C50U U51G U74C	0.76
A3U C40U A65G A77G	0.23
A3U G6A A21U U25C U41A U51C	0.07
A3U G10U C17U G24C U31C U74C	0.06
A3U C4U A20G C23U U60C	0.21
A3U C38A A57G U60C	0.11
A3U A35G U48A G63U	1.14
A3U C4U A5G U26C G73C	0.71
A3U C14U U26C U54C U67C	0.04
A3U C12A U41A A45U A56U A77G	0.07
A3U A65U U80C	0.52

Variant	self-cleavage
A3U A28G U80C	0.85
A3U G10A A15U C29U A35U C59U U74A	0.05
A3U C14A U72C	1.24
A3U A45G U49C U69C	0.31
A3U C12G A13U U26C U41C	0.57
A3U A28G U69C U72A	0.14
A3U G8U A15U U43C A64U	0.21
A3U A35G U41C U69A	0.9
A3U A28U U51G	1.05
A3U G10A C44A U49A U51A A56C U60C	0
A3U C12G U43A U51A A56G C81A	0.52
A3U A47U C50A U60C A65U	0.22
A3U A35G U41C A56U	1.22
A3U C29G U43C U69C	0.21
A3U A35G U69C	1.13
A3U C11G A47U A57U	0.18
A3U C17U U25C U48C A64G U69A	0.15
A3U C17A U31C C62U	0.32
A3U G6C A15C A28U	0.63
A3U C11U A28G	0.21
A3U A57G U69A	0.67
A3U G30A U49A A57G U60C A65G U69A	0.05
A3U C23U A57G U78C	0.09
A3U C4G A20G U26C A56G U67C	0.22

Variant	self-cleavage
A3U G19U A28G U67A U78C	0.06
A3U G6U A15G U26A U48G U54C	0.31
A3U A35U U80A	0
A3U A47G U51C	1.04
A3U G7A U25C A64G A65G A75G	0.06
A3U G19U G46A U58C U76C	0.08
A3U G16C U31C G33A U54C U69C	0.08
A3U A45U U60C	0.29
A3U C17U C23U A28U U31A	0.3
A3U C32U U60C U69C	0.12
A3U G9A U31C U54C	0.39
A3U G9U A28U U78C	0.06
A3U G9C U41C U49A A56G A65G	0.09
A3U A56G A57G U67A A77U	0.09
A3U C11G A18C A35U G61C	0.06
A3U G7C A18G U54C	0.13
A3U G22A A47U	0.38
A3U A28U U54A U80C	0.91
A3U G10U A18G A20U U41A U69C	0.05
A3U A45G U51C A57G U60A U76A	0.36
A3U A35G C38U U69C A75G	1
A3U A35C C40U G63C	0.19
A3U G46C U67G U74C	0.35
